Laboratory results taken from PubChem BioAssay AID493208 (National Center for Advancing Translational Sciences (NCATS), 2011).
The whole screen tested about 44,000 compounds, of which about 340 (0.77%) were called active. Another 5% or so got no clear call; they are omitted. Calls follow the shape of the dose curve; as a rule, active = well fitted inhibition curve with a large enough effect; inconclusive = small, poorly fitted or top-dose-only effect; inactive = flat fitted curve, though single readings scatter. Some of the results follow.

Assay: Acumen qHTS Assay for Inhibitors of the mTORC1 Signaling Pathway in MEF (Tsc2-/-, p53-/-) Cells: Sytravon;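 also: plate controls were DMSO for no effect and rapamycin for full effect; nearly all actives have a fitted effect of over 50% in size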
Conditions: phospho-rpS6 immunofluorescence/PI, 24 h; series mostly up to 38.3 µM; activity change, negative = inhibition: at the top concentration
Method in brief: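 Plate MEFs (Tsc2-/-, p53-/-, empty vector) in DMEM/10% FBS; after 24 h add compound, incubate 24 h at 37 degree Celsius; fix in PFA/TX-100, block, stain phospho-rpS6 and 10 uM PI; scan at 488 nm; report % positive cells.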

Activity change, negative = inhibition, inactive:
CCOC(=O)Cc1ccc(NC(=O)n2ncc3c(C)cccc32)cc1 -2.25%
CCOC(=O)c1c(C)oc2nc(C)nc(Nc3cccc(OC)c3)c12 -5.49%
CCOc1ccc(CC(=O)Nc2c(C(=O)c3ccc(F)cc3)oc3ccccc23)cc1OCC -2.27%
COc1ccc(C(CNC(=O)COc2ccc(C)c(C)c2)N2CCCCC2)cc1 (stereo not given) -14.3%
COC(=O)c1ccc(C2Nc3c(C)cc(C)cc3C3C=CCC32)cc1 (stereo not given) -17%
Cc1ccccc1CSc1cn(CCNC(=O)c2cccs2)c2ccccc12 -14.1%
CCC(O)c1nc2ccccc2n1Cc1cccc(Cl)c1 (stereo not given) 2.23%
O=C(NCc1ccc2c(c1)CCN2C(=O)c1ccc(F)cc1)c1ccc(Br)o1 -1.53%
COCCCN1C(=O)N(c2ccccc2)C(=O)C1CC(=O)Nc1ccc(F)cc1 (stereo not given) -5.87%
Cc1cc(C)c(NC(=O)Cn2nc3c(cc2=O)CCCC3)c(C)c1 2.31%
COc1ccccc1NC(=O)C1=C(C)Nc2c(C(=O)Nc3ccc(F)cc3)cnn2C1c1ccc(Cl)cc1 (stereo not given) 2.24%
O=C(Nc1ccc(S(=O)(=O)Nc2ccccc2)cc1)N1CCCC1 1.12%
COc1ccccc1NC(=O)N1CC(=O)Nc2sc3c(c2C1c1ccccc1)CCCC3 (stereo not given) 4.09%
COc1ccc(-c2noc(-c3ccc(NCc4ccc(C)cc4)c([N+](=O)[O-])c3)n2)cc1OC -8.41%
Cn1c(=O)c2c(nc(SCC(=O)Nc3ccc(OC(F)(F)F)cc3)n2Cc2cccc(C(F)(F)F)c2)n(C)c1=O -8.06%
Cc1ccc(S(=O)(=O)Nc2cc3c(cc2C)n(C)c(=O)c(=O)n3C)cc1 -1.83%
Cc1ccc(-c2onc(C)c2C)cc1S(=O)(=O)N1CCCCC1 -16.6%
Cc1ccc(CSC2=Nc3ccccc3C3=NC(CCC(=O)N4CCN(c5ccccc5)CC4)C(=O)N23)cc1 (stereo not given) -0.406%
CCOC(=O)c1c(N)n(-c2ccc(C)c(C)c2)c2nc3ccccc3nc12 0.166%
O=C(Cn1c(=O)n(-c2ccc(F)cc2)c(=O)c2sc3ccccc3c21)N1CCCC1 -2.41%
CCOC(=O)c1sc2ccccc2c1S(=O)(=O)Nc1c(C)cccc1C -7.07%
Cn1nc(C(=O)NCc2ccccc2)c2c1-c1ccccc1SC2 0.217%
COc1ccc(-n2nc(C(=O)N3CCC(C)CC3)c3c4ccccc4n(C)c3c2=O)cc1Cl 2.22%
Cc1ccccc1NC(=O)CSc1nc(-c2ccc(F)cc2)c2cccc(C)c2n1 0.717%
COc1cc(CNC(=O)c2cc(-c3ccccc3)n[nH]2)cc(OC)c1OC 2.34%
CCc1nn(CC(=O)NCCc2ccc(OC)cc2OC)c(=O)c2cc3sccc3n12 -0.7%
COc1cccc(CNC(=O)Cn2cc3c(n2)-c2c(oc(C(=O)N4CCCC4)c2C)CC3)c1OC 2.16%
CCCc1noc(-c2ccc(N3CCCCC3)c([N+](=O)[O-])c2)n1 2.87%
COc1cc(NC(=O)Cn2ncc3c(=O)oc4ccccc4c32)cc(OC)c1OC -14.5%
Cc1nc2c(cnn2-c2ccccc2Cl)c(=O)n1-c1ccc(C(C)C)cc1 -16.9%
CCc1ccc(S(=O)(=O)c2nnn3c2nc(NCCc2ccccc2)c2sccc23)cc1 -5.15%
CN(C)S(=O)(=O)N(CC(=O)NCCSCc1ccccc1Cl)c1ccccc1 -0.0873%
COc1cccc(-c2nc(SCC(=O)Nc3ccc4c(c3)OCO4)c(-c3ccccc3)[nH]2)c1 -19.8%
Cc1cccc(N2CCN(S(=O)(=O)c3cc(Br)cc4c3N(C(=O)C3CC3)CC4)CC2C)c1 (stereo not given) 2.34%
COc1ccc(CCn2cc3c(c2-c2ccccc2Br)c(=O)n(C)c(=O)n3C)cc1OC -11.8%
COc1ccc2c(Sc3ccccc3)c(C(=O)NCc3cccc(OC)c3OC)[nH]c2c1 -1.06%
CCOc1ccc(CCNC(=O)CCCc2nnc3n(CC(C)C)c(=O)c4sccc4n23)cc1 -1.81%
CCOC(=O)c1cc(S(=O)(=O)Nc2ccc(OC)c(Cl)c2)[nH]n1 1.1%
CCOC(=O)C1(C)C=C(Nc2ccc(C(N)=O)cc2)C(=O)N1c1ccccc1 (stereo not given) -8.42%
CN1C(=O)Cc2cc(S(=O)(=O)CCC(=O)Nc3cccc(C(F)(F)F)c3)ccc21 -10.6%
CC(C)OCCCn1c(SCc2cccc(Br)c2)nc2c(sc3ccccc32)c1=O -1.18%
COCCNC(=O)c1ccc2c(c1)N(Cc1cccc(Cl)c1)C(=O)c1ccccc1S2(=O)=O -6.15%
Cc1ccc(OC(=O)c2cc(-c3ccccc3)nc3ccc(C)cc23)cc1 2.64%
COc1ccccc1Oc1nc2c(c(=O)n(C)c(=O)n2C)n1Cc1cccc(Br)c1 -18.2%
CC(=O)Nc1ccc(S(=O)(=O)Nc2cccc(-c3ccc(N4CCC(C)CC4)nn3)c2)cc1 -0.635%
CCN(CC)S(=O)(=O)c1ccc2c(c1)c(=O)c(C(=O)NCc1ccc(Cl)cc1)cn2C -2.17%
COc1ccc(CC(=O)NCc2ccc3c(c2)CCN3C(C)=O)cc1OC -5.24%
CCOC(=O)C1CCN(C(=O)c2ccc3c(c2)sc2nc(-c4ccccc4)cn23)CC1 8.22%
Cc1c(C(=O)N(C)C)sc2c1c(=O)n(-c1ccc(F)cc1)c(=O)n2Cc1cc(=O)n2ccccc2n1 -8.98%
Nc1c(C(=O)Nc2ccc(Cl)c(C(F)(F)F)c2)sc2nc(-c3ccncc3)ccc12 0.197%
COc1ccc(C(=O)COC(=O)c2cc(-c3ccccc3)nc3c(C)cccc23)cc1 5.88%
O=C1CCc2cc(S(=O)(=O)NCc3ccc(F)cc3)cc3c2N1CC3 7.14%
Cc1ccc(Cc2nc3ccccc3nc2SCC(=O)N2CCN(c3ccccc3F)CC2)cc1 -7.24%
CC(=O)N1CCCc2ccc(NS(=O)(=O)c3ccc(C)c(C)c3)cc21 21.9%
CCC(=O)N1CCc2cc(Br)cc(S(=O)(=O)N3CCCC(C(=O)NCc4cccc(OC)c4)C3)c21 (stereo not given) -2.69%
Cc1nc2c(-c3ccccc3)c(C)nn2c(C)c1CCC(=O)N1CCN(c2ccccc2)CC1 2.17%
Cn1nc(C(=O)N2CCN(c3cccc(Cl)c3)CC2)c2c1-c1ccccc1S(=O)(=O)C2 11.5%
CCCCCn1c(NCc2ccccc2OC)nc2ccccc21 -5.37%
CCCS(=O)(=O)c1ncc(Cl)c(C(=O)Nc2c(C(=O)c3ccccc3)oc3ccccc23)n1 1.72%
CCc1cc2c(cc3c(=O)n(CC(=O)N4CCC(C)CC4)nc(CC)n32)s1 0.318%
CCc1ccc(-n2c(=O)c3ccc(C(=O)NCCc4ccccc4)cc3n(CC(N)=O)c2=O)cc1 -6.45%
CCS(=O)(=O)N1CCc2cc(C(=O)Nc3ccc(C)c(Cl)c3)ccc21 0.0617%
Cc1ccc2c(c1)C(c1ccccc1)N(C(=O)c1ccc(OC(C)C)cc1)CC(=O)N2 (stereo not given) -10.6%
Cc1cccc(CCNC(=O)Cn2ncc3c(=O)oc4ccccc4c32)c1 1.94%
Cc1c2cnn(-c3ccccc3)c(=O)c2c(C)n1CC(=O)NCc1ccccc1Br 0.155%
CC(=O)c1cccc(NC(=O)C(Cc2ccccc2)NS(=O)(=O)c2ccc(Br)s2)c1 (stereo not given) 2.48%
O=C(Nc1ccc(Cl)cc1)N1CCC(CN2CCCC2)CC1 1.57%
COc1ccc(Cn2cc(C(=O)c3ccc(OC)cc3)c(=O)c3cc4c(cc32)OCCO4)cc1 -19.5%
COc1ccc(OC)c(NC(=O)c2cn3c4c(ccc(Cl)c4c2=O)OC(C)C3)c1 (stereo not given) -0.137%
COc1c(Cl)cc(Cl)cc1/C=C(\C#N)c1nc2ccccc2[nH]1 -9.17%
CCN(CCCNC(=O)c1nn(-c2ccc(C)cc2)c(=O)c2c1c1ccccc1n2C)c1ccccc1 -8.35%
CCc1ccc(-n2c(=O)c3c(C)c(C(=O)N(C)C)sc3n(Cc3cccc(C)c3)c2=O)cc1 -2.73%
CCOc1ccc(CNC(=O)CCn2nc(C)c3c(C)n(-c4ccccc4)nc3c2=O)cc1 -4.1%
COc1ccc(C(=O)Nc2ccc(-c3cc4ccccc4oc3=O)c(C)c2)cc1Br -0.0198%
Cc1ccc(C)c(N2CCN(C(=O)CCCn3ncn4c(cc5occc54)c3=O)CC2)c1 -6.11%
CN(C)c1ccc(CNC(=O)CCCN2C(=O)CCn3nc(-c4cccn4C)cc32)cc1 -6.53%
COc1cc(-c2nc3sccn3c2Nc2cccc(C)c2)ccc1O 7.81%
Cc1ccc(O)c(-c2ccnc3cc(-c4ccc(Cl)cc4)nn23)c1 -16.1%
Cc1coc2cc3oc(=O)c(CC(=O)NCc4ccc(F)cc4)c(C)c3cc12 -12.5%
Cc1ccc(-n2c(=O)c3c4c(sc3n(Cc3ccccc3F)c2=O)CCC4)cc1C -1.99%
Cc1nc(-c2ccc(Cl)cc2)sc1CCNC(=O)c1ccco1 -16.3%
Oc1ccccc1-c1nc(/C=C/c2ccccc2Cl)no1 -5.37%
Cc1ccccc1NC(=O)CCc1c(C)nn(-c2ccc(N3CCCCC3)nn2)c1C 1.98%
Cc1ccc(Cn2c(=O)n(Cc3nc(-c4ccccc4)no3)c(=O)c3cc4c(cc32)OCO4)cc1 -1.31%
COc1ccccc1OCCCn1c(C2CC(=O)N(c3ccccc3Cl)C2)nc2ccccc21 (stereo not given) -0.835%
COc1ccc(C(=O)Nc2ccc3nc(SCc4ccc(C)cc4)sc3c2)cc1 -0.502%
CC(=O)c1cccc(NC(=O)CCc2c(C)nc3c(-c4ccc(F)cc4)c(C)nn3c2C)c1 -5.87%
O=C(Nc1ccccc1)N1CCN(C(=O)c2nsc3ccccc23)CC1 -0.904%
CCCc1nc2sc3c(N4CCCCC4)ncnc3c2c2c1CCCC2 -18.9%
COc1ccc(OC)c(NC(=O)Cn2cc(S(=O)(=O)c3ccccc3)c(=O)c3cc(C)ccc32)c1 -6.22%
Cc1ccc(CCNC(=O)CCn2c(=O)c3cccn3c3ccc(F)cc32)cc1 2.77%
Fc1cccc(F)c1-c1nc(-c2ccncc2)no1 -12.6%
Cc1cc(=O)n2nc(N3CCC(C(=O)Nc4ccc(C(C)C)cc4)CC3)sc2n1 -0.683%
Cc1cccc(NC(=O)Cn2c(=O)n(Cc3ccc(C(=O)NCc4ccc5c(c4)OCO5)cc3)c(=O)c3ccccc32)c1 7.53%
O=C(CCn1c(=O)c2cccn2c2ccc(F)cc21)NCc1ccccc1F -5.79%
